Out of some 140,000 compounds screened, about 240 (0.17%) were called active. This list was built around the results that the source calls inconclusive (neither active nor inactive); the mix of calls is not that of the screen. Calls follow the shape of the dose curve; as a rule, active = well fitted inhibition curve with a large enough effect; inconclusive = small, poorly fitted or top-dose-only effect; inactive = no such curve, though single readings can be large or run the other way. Where the call is inconclusive, the potency comes from a doubtful curve fit.
Experiment: Primary qHTS assay for inhibitors of alpha-synuclein gene (SNCA) expression; also: nearly all actives have a fitted effect of over 45% in size;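 as to activity change, negative = inhibition: plate controls were DMSO cells for no effect and cell-free wells for full effect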
Settings: HEK-293 SNCA-luciferase knock-in, luminescence, 24 h; activity change, negative = inhibition: at 57.2 µM (top of the series) unless noted
For `CC(C)(C)OC(=O)NCCCC(=O)N1CCN(c2cccc(C=O)c2)C(=O)C1`, the Potency was inconclusive: 39.8 µM [inhibitor, single point].
In the case of `O=C(c1ccc(F)cc1)N1CCN(C(=O)c2nnn3c2COC(c2ccc(Cl)cc2)C3)CC1` (stereo unspecified), the Potency is reported as inconclusive: 14.1 µM [inhibitor, partial curve, poor fit].
With `COc1ccc(-c2cc(C[C@H]3CNCC[C@H]3CC(=O)NCc3ccc4c(c3)OCO4)no2)cc1` the Potency was inconclusive: 39.8 µM [inhibitor, single point].
With `CCOc1ccccc1C(=O)Nc1cc(-c2nc3cccnc3s2)ccc1C` the “activity change, negative = inhibition” value was inactive: 1.93%.
With `CC(C)(C)C(=O)Nc1ccc2nc(SCCOc3ccccc3Cl)sc2c1` the Potency was inconclusive: 39.8 µM [inhibitor, single point].
For `CCOc1ccc(-c2cc(CCCC(=O)NCCc3ccc(OC)c(OC)c3)no2)cc1`, the Potency was inconclusive: 0.891 µM [inhibitor, partial curve, poor fit].
For `CS(=O)(=O)c1ccc(-c2cnc([C@@H]3COCCN3Cc3ccc(Cl)cc3)[nH]2)cc1`, the “activity change, negative = inhibition” value was inactive: -19.6% [at 87.6 µM].
For `CC[C@H]1CN(S(=O)(=O)c2c(C)noc2C)CC[C@H]1CC(=O)Nc1nccs1`, the Potency was inconclusive: 12.6 µM [inhibitor, single point].
For `Cc1ccccc1NC(=O)Cn1nnc(C(=O)NCc2cccs2)c1N`, the Potency was inconclusive: 3.98 µM [inhibitor, full curve, poor fit].
In the case of `OCCc1ccc(Nc2cnc3ccc(N4CCOCC4)nn23)cc1`, the Potency is reported as inconclusive: 8.91 µM [inhibitor, partial curve].
For `Cc1ccc(C)c(-c2cc3c(=O)n(CCNC(=O)c4cccc(N(C)C)c4)ccn3n2)c1`, the Potency was inconclusive: 15.8 µM [inhibitor, partial curve, poor fit].
With `O=C(Nc1cccc(O)c1)c1cc(-c2ccccc2F)no1` the Potency was inconclusive: 39.8 µM [inhibitor, single point].
In the case of `O=C(C[C@@H]1CCNC[C@@H]1Cc1cc(CN2CCCCC2)on1)NCc1cccs1`, the “activity change, negative = inhibition” value is reported as inactive: 3.93% [at 87.6 µM].
For `CCc1ccc(NS(=O)(=O)c2ccc(NC(=O)N3CCCC3)cc2)cc1`, the Potency was inconclusive: 39.8 µM [inhibitor, single point].
In the case of `CN(C)c1nc(-c2ccccc2)nc2c1CCN(C(=O)C1CCOC1)C2` (stereo unspecified), the Potency is reported as inconclusive: 0.708 µM [inhibitor, full curve, poor fit].
With `Cc1ccc(C)c(CSc2cn(CCNC(=O)c3cccs3)c3ccccc23)c1` the Potency was inconclusive: 31.6 µM [inhibitor, partial curve, poor fit].
In the case of `N#Cc1cccc(-c2c(C(=O)NCc3ccccn3)nc3sccn23)c1`, the Potency is reported as inconclusive: 1.41 µM [inhibitor, full curve].
For `CN1CCN(c2nc3c(c(=O)[nH]2)CCN(Cc2ccc(Cl)cc2F)CC3)CC1`, the Potency was inconclusive: 7.08 µM [inhibitor, full curve, poor fit].
With `O=C(c1ccccc1F)N1CCC2(Cc3ccccc3NC2=O)C1` (stereo unspecified) the Potency was inconclusive: 3.16 µM [inhibitor, full curve].
For `Cc1cccc2c(=O)cc(CSc3ccccc3NC(=O)c3cccc(Br)c3)[nH]c12`, the Potency was inconclusive: 7.08 µM [inhibitor, single point].
In the case of `Cc1ccc(-c2cnc([C@@H]3COCCN3Cc3ccccc3F)[nH]2)cc1`, the “activity change, negative = inhibition” value is reported as inactive: -16.5% [at 87.6 µM].
In the case of `CN(CC(=O)N1CCCn2nc(-c3cccc(C(F)(F)F)c3)cc2C1)S(=O)(=O)c1ccc2c(c1)oc(=O)n2C`, the Potency is reported as inconclusive: 1.78 µM [inhibitor, single point].
For `CCc1cccc(NC(c2nnc(-c3ccccc3)o2)c2ccc(F)cc2Cl)c1` (stereo unspecified), the Potency was inconclusive: 39.8 µM [inhibitor, single point].
For `Cc1ccc(NC(=O)NCC2CCN(Cc3cccc(Cl)c3)CC2)cc1Cl`, the Potency was inconclusive: 10 µM [inhibitor, partial curve, poor fit].
For `CC1=C[C@@H](CNC(=O)NCCO)[C@H](C(C)C)C[C@H]1CC(=O)NCc1cccnc1`, the “activity change, negative = inhibition” value was inactive: 2.75% [at 87.6 µM].
In the case of `Cc1ccccc1OCC(=O)Nc1ccc2nc(SCCOc3ccccc3)sc2c1`, the Potency is reported as inconclusive: 1 µM [inhibitor, partial curve, poor fit].
For `O=C(NCC1CC1)c1csc(N2CCN(c3ccccc3F)CC2)n1`, the Potency was inconclusive: 20 µM [inhibitor, partial curve].
With `CN(C(=O)CSc1nc2ccc(NC(=O)CCc3ccccc3)cc2s1)c1ccccc1` the Potency was inconclusive: 8.91 µM [inhibitor, partial curve, poor fit].
For `Cc1ccc(C)c(Cn2c(SCC(=O)N(C)Cc3ccccc3)nc3ccccc32)c1`, the Potency was inconclusive: 25.1 µM [inhibitor, partial curve].
With `Cc1nn(-c2ccc(C(C)(C)C)cc2)c(C)c1[C@@H]1C=C[C@@H](NC(=O)COCC(=O)O)C1` the “activity change, negative = inhibition” value was inactive: 17.2% [at 87.6 µM].
In the case of `COc1cccc(-n2c(-c3ccco3)nc3c(cnn3-c3ccc(C)cc3)c2=O)c1`, the Potency is reported as inconclusive: 39.8 µM [inhibitor, single point].
For `CCc1nnc(CN(CC)C(=O)c2cc(S(N)(=O)=O)ccc2F)o1`, the Potency was inconclusive: 3.98 µM [inhibitor, single point].
For `COCCNC(=O)[C@H]1C[C@H](Oc2ccccc2)CN1S(=O)(=O)Cc1ccccc1F`, the Potency was inconclusive: 39.8 µM [inhibitor, single point].
In the case of `CNC(=O)CCn1ncc2cc(OC3CCc4cccc(-c5ccc(F)cc5)c43)ccc21` (stereo unspecified), the Potency is reported as inconclusive: 20 µM [inhibitor, partial curve, poor fit].
In the case of `CCNc1cc(N2CCC(CCC(=O)N3CCc4ccccc4C3)CC2)ncn1`, the Potency is reported as inconclusive: 6.31 µM [inhibitor, full curve, poor fit].
In the case of `NC(=NCc1ccccc1)NC(=O)c1nc(Cl)c(N)nc1N`, the Potency is reported as inconclusive: 21.5 µM [inhibitor, partial curve, poor fit].
For `Cc1ccc(-c2cccc(CN3CCCC(NC(=O)c4c(C)noc4C)C3)c2)cc1Cl` (stereo unspecified), the Potency was inconclusive: 39.8 µM [inhibitor, partial curve, poor fit].
For `CC(C)c1cccc(NC(=O)c2ccc3c(c2)N(C)C2CCCCN2C3=O)c1` (stereo unspecified), the “activity change, negative = inhibition” value was inactive: 37.4%.
With `COc1cccc(CN2CCCCCCNC(=O)[C@@H]3C[C@@H](C(=O)N4CCc5ccccc5C4)C[C@@H]32)c1` the “activity change, negative = inhibition” value was inactive: -15.9%.
In the case of `O=C(CCS(=O)(=O)c1nc(-c2ccc3c(c2)OCO3)cc(C(F)(F)F)n1)Nc1ccc(F)c(Cl)c1`, the Potency is reported as inconclusive: 39.8 µM [inhibitor, single point].
With `CC(C)CCN1CCC(N2CCN(S(=O)(=O)Cc3ccc(F)cc3Cl)CC2)C1=O` (stereo unspecified) the Potency was inconclusive: 39.8 µM [inhibitor, single point].
With `CCc1ccc(CNC(=O)C2CCCN(c3nn4cc(-c5ccc(F)cc5)nc4s3)C2)cc1` (stereo unspecified) the Potency was inconclusive: 2 µM [inhibitor, full curve, poor fit].
In the case of `CCOC(=O)c1ccccc1NC(=O)N1CCCN(S(=O)(=O)c2ccc3c(ccn3CC)c2)CC1`, the Potency is reported as inconclusive: 31.6 µM [inhibitor, single point].
For `Cc1noc(C)c1CNCC1(COc2cnccn2)C[C@@H](O)[C@@H](O)C1` (stereo partly specified), the Potency was inconclusive: 3.55 µM [inhibitor, full curve].
In the case of `COc1ccc(CC(=O)N[C@H]2C[C@@H](c3nc(-c4ccc5ccccc5c4)no3)N(C)C2)cc1`, the “activity change, negative = inhibition” value is reported as inactive: 59%.
In the case of `N#Cc1ccc(C(=O)N2CCC(Cc3ccc(C(N)=O)cc3)CC2)cc1`, the “activity change, negative = inhibition” value is reported as inactive: 6.56%.
In the case of `CCOC(=O)c1c(C)c(-c2ccccc2)n(CC(=O)Nc2cccc(F)c2)c1C`, the Potency is reported as inconclusive: 10 µM [inhibitor, partial curve].
With `O=C(Nc1noc2ccccc12)c1c(F)cccc1F` the Potency was inconclusive: 10 µM [inhibitor, partial curve, poor fit].
With `Cc1ccc(S(=O)(=O)N(CC(=O)N2CCc3ccccc3C2)c2ccc(C)c(C)c2)cc1` the Potency was inconclusive: 22.4 µM [inhibitor, single point].
For `O=C1NC2(CCN(C(=O)c3ccccc3F)C2)N=C1c1ccccn1` (stereo unspecified), the Potency was inconclusive: 56.2 µM [inhibitor, single point].
For `COCCNC(=O)C1CCN(c2nc3ncccc3o2)CC1`, the Potency was inconclusive: 8.91 µM [inhibitor, single point].
For `O=C(C1CCCN1C(=O)C1CCCC1)N1CCC(N2CCOCC2=O)CC1` (stereo unspecified), the Potency was inconclusive: 39.8 µM [inhibitor, single point].
With `Cn1ccnc1-c1ccc(N2CC[C@@]3(O)CCN(S(C)(=O)=O)C[C@H]3C2)nn1` the “activity change, negative = inhibition” value was inactive: 60.6%.
With `COc1ccc(-c2noc(CSc3nnc(-c4ccccc4)n3-c3ccc(F)cc3)n2)c(OC)c1` the Potency was inconclusive: 22.4 µM [inhibitor, single point].
For `COc1ccc(-c2noc(CC3CCN(C(=O)C4CC4)CC3)n2)cc1`, the “activity change, negative = inhibition” value was inactive: 28.4%.
For `O=C1NCc2ccccc2CC12CCCN2Cc1ccc(F)cc1` (stereo unspecified), the “activity change, negative = inhibition” value was inactive: -15.5%.
In the case of `O=C1[C@H]2CN(Cc3cccc(Br)c3)C[C@H]2C(=O)N1Cc1ccc2c(c1)OCO2`, the Potency is reported as inconclusive: 39.8 µM [inhibitor, single point].
For `Cc1ccc2nc(-c3ccc(NC(=O)C(F)(F)F)cc3)sc2c1`, the Potency was inconclusive: 2 µM [inhibitor, full curve, poor fit].
For `COc1cc(Nc2nc(SCc3cccc(Cl)c3)nc3ccccc23)cc(OC)c1`, the Potency was inconclusive: 44.7 µM [inhibitor, single point].
With `CC(C)c1nc2c(c(-c3ccc(Cl)cc3)n1)CN(C(=O)c1cccc(Cl)c1)CC2` the Potency was inconclusive: 14.1 µM [inhibitor, partial curve, poor fit].
With `CC1=C[C@@H](CNCc2ccc(C#N)cc2)[C@H](C(C)C)C[C@H]1Cc1nnc(C(C)(C)C)o1` the Potency was inconclusive: 31.6 µM [inhibitor, single point].

Reference: PubChem BioAssay AID1671194 (National Center for Advancing Translational Sciences (NCATS), 2021)
Potency is read from the fitted curve at half-maximal effect; tags tell the direction and shape of the fitted curve.
